Reference: article PMC7718735
Changes are numbered by the printed parent chain. Results are given in words; binding and its absence hold for the method and conditions named. Some entries that bind do so weakly or less than the wild type.

The chains behind the UniProt entries cited, without tags or fusion partners.
UniProt O13959: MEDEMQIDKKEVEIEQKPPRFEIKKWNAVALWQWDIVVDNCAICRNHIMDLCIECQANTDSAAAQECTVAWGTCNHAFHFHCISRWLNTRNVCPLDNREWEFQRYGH
UniProt O60016: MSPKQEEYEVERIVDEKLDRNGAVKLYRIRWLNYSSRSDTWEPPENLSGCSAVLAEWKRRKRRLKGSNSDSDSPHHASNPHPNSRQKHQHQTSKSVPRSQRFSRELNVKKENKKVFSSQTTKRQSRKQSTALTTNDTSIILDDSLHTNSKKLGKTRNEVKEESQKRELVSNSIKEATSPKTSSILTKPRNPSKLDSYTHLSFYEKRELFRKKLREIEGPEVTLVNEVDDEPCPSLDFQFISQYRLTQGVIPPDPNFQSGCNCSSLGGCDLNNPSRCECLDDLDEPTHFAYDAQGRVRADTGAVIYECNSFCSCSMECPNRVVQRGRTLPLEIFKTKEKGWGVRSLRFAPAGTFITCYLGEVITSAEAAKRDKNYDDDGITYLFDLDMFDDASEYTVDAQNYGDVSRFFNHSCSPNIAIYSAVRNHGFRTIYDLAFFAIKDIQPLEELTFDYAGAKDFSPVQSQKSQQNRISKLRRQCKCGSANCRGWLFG

T1: Lem2 MYTH bait (S. pombe) (UniProt Q10109)
T1 sequence: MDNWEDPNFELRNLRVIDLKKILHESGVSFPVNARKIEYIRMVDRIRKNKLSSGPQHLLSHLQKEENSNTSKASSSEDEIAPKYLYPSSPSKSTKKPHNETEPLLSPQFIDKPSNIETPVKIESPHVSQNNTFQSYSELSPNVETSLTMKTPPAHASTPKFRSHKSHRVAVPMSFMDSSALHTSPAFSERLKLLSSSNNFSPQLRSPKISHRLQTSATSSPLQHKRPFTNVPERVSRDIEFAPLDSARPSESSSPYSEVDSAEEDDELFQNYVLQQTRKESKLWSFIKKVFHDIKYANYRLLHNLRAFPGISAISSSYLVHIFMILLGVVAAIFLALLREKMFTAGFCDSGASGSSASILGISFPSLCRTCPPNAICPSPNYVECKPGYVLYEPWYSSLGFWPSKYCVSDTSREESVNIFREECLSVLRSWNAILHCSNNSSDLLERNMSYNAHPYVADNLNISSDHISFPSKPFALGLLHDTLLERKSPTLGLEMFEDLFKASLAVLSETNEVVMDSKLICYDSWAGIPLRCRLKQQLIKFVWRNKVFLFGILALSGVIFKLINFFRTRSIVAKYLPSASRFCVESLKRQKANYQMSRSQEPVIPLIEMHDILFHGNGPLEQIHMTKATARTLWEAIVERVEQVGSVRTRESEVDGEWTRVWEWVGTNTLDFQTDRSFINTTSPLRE

T2: Cut11 C525R MYTH bait (S. pombe) (UniProt O13961)
T2 sequence: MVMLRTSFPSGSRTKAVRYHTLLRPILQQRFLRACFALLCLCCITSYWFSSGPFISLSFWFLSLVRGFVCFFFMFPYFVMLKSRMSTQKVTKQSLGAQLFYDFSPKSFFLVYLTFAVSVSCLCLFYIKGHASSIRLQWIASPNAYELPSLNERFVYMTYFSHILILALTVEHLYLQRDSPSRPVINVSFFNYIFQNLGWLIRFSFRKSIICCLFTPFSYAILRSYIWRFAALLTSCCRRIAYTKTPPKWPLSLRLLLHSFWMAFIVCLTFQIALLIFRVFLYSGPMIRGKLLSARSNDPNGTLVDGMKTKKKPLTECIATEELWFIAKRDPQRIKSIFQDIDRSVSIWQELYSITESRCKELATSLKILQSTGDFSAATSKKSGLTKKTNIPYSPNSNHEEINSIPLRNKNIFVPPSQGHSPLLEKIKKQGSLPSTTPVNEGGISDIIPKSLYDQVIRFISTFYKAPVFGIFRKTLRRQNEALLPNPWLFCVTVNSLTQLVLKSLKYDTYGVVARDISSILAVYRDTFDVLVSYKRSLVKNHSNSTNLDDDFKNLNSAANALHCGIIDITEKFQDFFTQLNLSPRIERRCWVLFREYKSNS

T3: Ima1 MYTH bait (S. pombe) (UniProt O13681)
T3 sequence: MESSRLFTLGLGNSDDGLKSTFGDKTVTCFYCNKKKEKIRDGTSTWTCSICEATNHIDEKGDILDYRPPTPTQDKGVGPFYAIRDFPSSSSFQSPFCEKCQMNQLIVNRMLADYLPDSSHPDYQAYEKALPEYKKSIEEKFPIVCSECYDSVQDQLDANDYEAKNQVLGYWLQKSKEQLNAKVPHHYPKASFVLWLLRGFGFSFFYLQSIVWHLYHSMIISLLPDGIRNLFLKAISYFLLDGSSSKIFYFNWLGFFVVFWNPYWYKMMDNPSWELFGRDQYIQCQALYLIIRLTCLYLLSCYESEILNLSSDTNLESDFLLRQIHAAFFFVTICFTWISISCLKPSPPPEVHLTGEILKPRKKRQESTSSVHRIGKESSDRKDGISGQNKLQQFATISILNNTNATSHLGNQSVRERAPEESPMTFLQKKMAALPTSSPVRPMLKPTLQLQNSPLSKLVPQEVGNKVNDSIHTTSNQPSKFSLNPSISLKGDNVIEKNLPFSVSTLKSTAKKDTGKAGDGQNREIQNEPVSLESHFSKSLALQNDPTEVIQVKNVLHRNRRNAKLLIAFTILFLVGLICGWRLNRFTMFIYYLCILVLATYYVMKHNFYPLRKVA

T4: Cut11 L521F MYTH bait (S. pombe) (UniProt O13961)
T4 sequence: T2 sequence with L521F, R525C

T5: Cut11 T498I MYTH bait (S. pombe) (UniProt O13961)
T5 sequence: T2 sequence with T498I, R525C

T6: Cut11 MYTH bait (wild type) (S. pombe) (UniProt O13961)
T6 sequence: T2 sequence with R525C

B1: Tvp15 MYTH prey (protein, UniProt O14223 1-132)
chain: MDKTKMFSAINLGVGGIFVLSGFIKLFSFSFVNALLALFIIVFGLGTIGLEKEIPPIAIKYGSFMFSFLGRGFFYAFMGTLLFSYSGFTSFLGFLVLLAGIAYCGANYVAGLQDYAPRSMRDNDWDDNVDEV
B2: Ima1 MYTH prey (protein, UniProt O13681 1-615)
chain: T3 sequence
B3: Cut11 MYTH prey (protein, UniProt O13961 1-601)
chain: T2 sequence with R525C

What was measured:
[1] = target: T1, Lem2 MYTH bait (S. pombe); experiment: two-hybrid; split-ubiquitin membrane yeast two-hybrid (MYTH) in S. cerevisiae; bait-Cub-LexA-VP16 strains mated with the arrayed Nub prey library, diploids spotted in quadruplicate on SD-leu-trp-ade-his with 25 mM 3-AT, imaged every 24 hr for 4 days; positive by a colony density cutoff
[2] = target: T1, Lem2 MYTH bait (S. pombe); experiment: two-hybrid; MYTH confirmation: bait and prey plasmids sequentially transformed into the haploid reporter strain SLJ5572; ten-fold dilution series on SD-leu-trp-ade-his + 25 mM 3-AT at 30°
[3] = target: T1, Lem2 MYTH bait (S. pombe); experiment: two-hybrid; split-ubiquitin membrane yeast two-hybrid (MYTH) in S. cerevisiae; bait-Cub-LexA-VP16 strains mated with the arrayed Nub prey library, diploids spotted in quadruplicate on SD-leu-trp-ade-his with 25 mM 3-AT, imaged every 24 hr for 4 days; positive by a colony density cutoff; remark: listed apart in the source
[4] = target: T2, Cut11 C525R MYTH bait (S. pombe); experiment: as above
[5] = target: T3, Ima1 MYTH bait (S. pombe); experiment: as above
[6] = target: T4, Cut11 L521F MYTH bait (S. pombe); experiment: as above
[7] = target: T5, Cut11 T498I MYTH bait (S. pombe); experiment: as above
[8] = target: T6, Cut11 MYTH bait (wild type) (S. pombe); experiment: as above

Molecule | binding [1] | binding [6] | binding [8] | also measured
Rbx1 MYTH prey (from UniProt O13959 1-107) | binds weakly | – | – | –
Clr4 MYTH prey (from UniProt O60016 1-490) | no binding | – | – | –
B1 | – | – | – | binding [2]: binds; binding [3]: binds weakly
B2 | – | binds | binds | binding [4]: binds; binding [5]: no binding; binding [7]: binds
B3 | – | binds | binds | –
